Experimental data: the supplement of paper PMC7726561
In all, about 1,400 sequences were measured (“thermal melting temperature (Tm) of peptide-HLA complex”: median about 60, lowest 2% from about 45 on). Some of the results follow.

target: HLA-B*07:02; assay: thermal melting temperature (Tm) of peptide-HLA complex; higher = more thermostable pHLA complex; settings: C1R-B*07:02
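Also: cell lysates heated 10 min at 37–73 °C, remaining pHLA pulled down with pan-class I antibody, peptides quantified by DIA-MS versus 37 °C, Tm where half the complex is lost.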

| Sequence | thermal melting temperature [°C] |
| --- | --- |
| EPRSGEQVPL | 55.2 |
| IPTKKSQVF | 58.9 |
| SPREMVAQFL | 59.1 |
| LPMGALPQGPM | 56.6 |
| AASKERSGVSL | 62.6 |
| TPHLRNLAV | 60 |
| RPQASALEL | 59.5 |
| MPFRGYAVL | 60.3 |
| IPGGLRAAT | 57.8 |
| APKRPPSAFF | 62 |
| LPDIKVLTL | 56.7 |
| LPRSINTDTL | 58.5 |
| KPVNPSPLSQL | 58.9 |
| SLNSLRSSL | 58.5 |
| TPMPPISSV | 63 |
| QPRLSSILF | 61.5 |
